Read counts are not given, so values of variants with three or more changes are uncertain.
B1: LINE1-full (parent)
chain: UACGUAGGUGGUUUUCCCCUGAUAGUGCUAAGGGGGCCUGGAAGUUUGGACUGGGCAGAGCUCAACACAGCGUGGCAAAGUGGCUGUGGCUAGACUGCCUCUCUGGAUUCCUCGUCACUCAGCAGGGCAUCUCUGAGAGAAAUGCC

Variants of: B1
Assay: self-cleavage, relative activity (ratio to wild type); higher = more cleavage; in vitro, sequencing; the parent is a self-cleaving ribozyme

| Variant | self-cleavage |
| --- | --- |
| U12C A94U G114A | 0.3 |
| U9C A65G A136G | 0 |
| A79U C113A G125U U132C | 1.39 |
| U12G U13G U87A A121G | 0.29 |
| A65G G83A A107G A129U | 0.03 |
| A64G A79G U91C | 0.46 |
| G11A U45C U47C G58U | 0.04 |
| A57C G58A U62A A78U | 0.04 |
| U23C U100C U130C | 1.7 |
| U9G U132C A142C | 0.96 |
| U12A U39A G44U | 0.92 |
| A43G A59G A64U A136G | 0.12 |
| A6U A43U A142G | 1.12 |
| U23C A64U A124G | 0.37 |
| U12C U73G U96A C118G C128U | 0.04 |
| U9A U46C U62C U73A | 0.11 |
| U12G A30G A65C U102A A140G | 0.61 |
| A22G U62C A65C U132A | 0.17 |
| U9C A50G A64G U87A U115A A140G | 2.63 |
| G21U U39A C146U | 0.74 |
| A59U U85A A124G | 0.07 |
| U14C A31G A65U G74A U102C A107G C118U | 0.09 |
| A2C U13C U119A A121U | 0.53 |
| U14C A57U U109C | 0.02 |

| Variant | self-cleavage |
| --- | --- |
| A42G C56U U96C | 0.26 |
| A2U U13A U87C A141G | 0.17 |
| U13C U20C U115A U119C | 2.3 |
| U26C A57G C71A A78G U115A U143C G144A | 0.17 |
| C19U A64G U96C A117U G122C A138G | 0.1 |
| C28U U39A U81C U130C | 0.84 |
| A24G C113U U143C | 1.42 |
| U5C C76U U112C U134A | 0.62 |
| U15C C37G C61U U134C | 0.03 |
| U23C U96C U115C | 0.21 |
| C63U A94U U119A A124G | 0.04 |
| A22G A124G U130C A140G | 2.92 |
| U13A A22C G127C | 1.22 |
| U14C G35C U46C | 0.78 |
| U87A U134C A138G | 0.05 |
| U5C U12G U39A A77G C95U | 1.02 |
| A22U C71U A141G | 1.49 |
| U45C A69U U100C U115C | 0 |
| A22U U23C U102C U134G | 2.68 |
| U47C C90U U108C | 0.02 |
| A42G A67G U132C | 0.55 |
| U15C U26A A124U | 0.79 |
| U20C A94G A107U A138G | 0.27 |
| U12C A22U A30U A42G A43C A79G A138U | 0 |

| Variant | self-cleavage |
| --- | --- |
| A57G A78G A138G A141G | 0.74 |
| U12G A67G G89A U104G | 0.33 |
| U26C A69U A77U A78G U81C U87A | 0.16 |
| U29C A30G A141G | 0.77 |
| U26G A69G U130C | 0.88 |
| U15C U108A U109C | 2.15 |
| A59G U96C A121U | 0 |
| A67U A69G U100C | 0.09 |
| C38U A42U U91C C113U | 0.3 |
| A79G U85C U143C | 0.29 |
| A22C A42G A67U C128U | 0.1 |
| U12C A69U U87A U115C | 0.05 |
| A2U A31U G48A A57G U119A | 0.56 |
| G34C G54A A57G A67U C133A | 0.12 |
| C19U U85C U91C A129G | 0 |
| A2G U12C U119C | 1.75 |
| U9C U85C A92U | 0.43 |
| A24G A57G A64U | 0.64 |
| C37U A78G U143C | 1.62 |
| U9A C17U U102A U115C A117G | 1.15 |
| U12C U47A G70A A94G A142G | 0.01 |
| A43G G54A A59G | 0.09 |
| U26C G41A A57U | 0.11 |
| A50U A107G A129U | 0.76 |

| Variant | self-cleavage |
| --- | --- |
| G11A C28G A64G U85A U143C | 0.03 |
| U12A A43G A77U | 0.56 |
| G54U A79G U108G U132A | 0.55 |
| A2U C28G A65G U102C | 0 |
| U87A U109C C118U A124G | 0.08 |
| U9C U45A A140G | 1.02 |
| U13C U39C A67U U85A | 0.12 |
| G8A U26A A31U U132A | 0.92 |
| C19U A94G U102C U115C | 0 |
| U15C U20C A77G U143C | 2.05 |
| A117G A141G A142G | 0 |
| U62C C111U U132C | 0.04 |
| U15C A77G A78G | 2.37 |
| U5A A22U U108A | 0.2 |
| U26C U73C U112C G125A | 1.58 |
| A42G A43G G88A A129G A142C | 0.12 |
| U5C C145U C146U | 0.48 |
| U119A A140G U143C | 0.88 |
| U46A U85C G97A A121U | 0.05 |
| A2G A31U C118A | 1.08 |
| U14C U46A C116U | 1.39 |
| A43G U112C A117G | 0.84 |
| G34U U52C U108C U112C | 1.08 |
| U12C U20G A42G A59U G88A | 0.14 |

| Variant | self-cleavage |
| --- | --- |
| U47C U73C U134A | 1.02 |
| A42G C90U U115C A136G A138G | 0 |
| U46C A129U U143A | 1.38 |
| G44A U81C G93U U102C A121G A140U | 0.03 |
| U15A A69G U112C A140U | 0.16 |
| A30G U46C U112C | 0.77 |
| U15C A69U A136G U143C | 0.21 |
| A57G A107G G144A | 1.18 |
| U13C U46C U143A | 1.26 |
| A6C U9A U119C U132C A136G | 0.61 |
| A64U U96C U132C | 0.12 |
| U46C U73C U100A | 1.75 |
| U13C U15C U26A A50U U52C | 1.12 |
| A6U U13C U81A | 1.17 |
| U12C U46A A141G | 0.46 |
| G25A A94G U115A | 0.16 |
| G8A U12C A141G | 1.12 |
| A22C A78G U115C | 1.97 |
| U23A G34C U100A | 0.75 |
| U87C U100C U104A | 0 |
| C123G G127C U132C A138G | 1.23 |
| U81A U112C A141G | 2.04 |
| U13A G54A U134C | 0.57 |
| C19U U47A U52C U73A A107G | 0.54 |

| Variant | self-cleavage |
| --- | --- |
| U23A U39C A65G A78G U130A | 0.19 |
| U12C A78G U134C | 1.79 |
| U85A A94U A121U | 0.19 |
| A30G C37G A77G | 2.51 |
| A30U A59G A69U A124G U134A | 0.18 |
| U12G U13G U47C A59G | 2.3 |
| U45C U46G U62C | 0.31 |
| A2G A22G G32A | 0.77 |
| A2G U20C A43G A59U A69G A77U U87G A140G | 0 |
| A30U A69U A140G | 0.05 |
| A6G C51U U100A | 0.78 |
| U5A A6G A30G U47C | 1.43 |
| U9A G35A A141G A142G | 0.78 |
| A43G A67G A117U A138G | 0.63 |
| A22G U119C A124G | 0.46 |
| U47C A65G A77U | 0.1 |
| U12A U46C A136G | 1.57 |
| G88A U100C U104C A121G | 0.28 |
| U45A U47C A64U A77U U143C | 0.51 |
| U47C A57U A107G U143C | 0 |
| U20A A30U A79U U108C A121G | 0 |
| A94G A117G U134G | 0 |
| A24G C71U A78G A121G | 0.57 |
| U26C A43G A69U C99A | 0.07 |

| Variant | self-cleavage |
| --- | --- |
| U26A A31G U115C C145A | 1.05 |
| A2G G137U A140G U143A | 2.15 |
| A2G U20C A22G U39G U96A | 0 |
| U109C A129U A136G | 1.8 |
| G7C U12C U45G | 0.96 |
| G10A A43G U46C A65U A129G | 1.2 |
| G7U A22G A30G U112C A141G | 0.86 |
| U1C G33C U52C | 0.54 |
| C120A U132C G139U | 1.58 |
| U13C A50U U52A | 0.89 |
| A31U A124G U143C | 0.33 |
| U14C U47G A142G | 1.49 |
| C66A U81C A140G U143C | 0.06 |
| U23C U45C A92U U119A A136G | 1.36 |
| U14C A57U A67U U104C | 0 |
| U15C C18A U100A A142G | 0.59 |
| G25A U104C A129G | 0.77 |
| U73G A79G U96G | 0 |
| C51U U62C G74A | 0.04 |
| A2G C66U U91C | 0.12 |
| U20G G41A A42G U46C G88A U134C | 0.19 |
| U15C A50U A64G A94U C133A | 0.36 |
| A2G A65U A69C | 0 |
